AC50 data for 3 compounds are collected here from PubChem BioAssay (NCATS).

Some of the results follow. The main result of the screen is listed elsewhere. These columns were measured beside it and carry no call. Most of these compounds were active or inconclusive in the main read-out, so they are no random draw. Potencies come from curve fits of mixed quality, noted in brackets.
Tags describe the fitted curve by direction and shape.

A short description of this experiment: Cell-based coincidence reporter assay to measure PMP22 gene transcription in S16 Pmp22-F2sN cells - Confirmatory screen (AID 1508646). To be noted: S16 Schwann cells Pmp22-F2sN, dual luciferase, 24 h; measured here: NLuc reporter channel. The procedure, abridged:
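S16 Schwann cells carrying a bioluminescent reporter in the Pmp22 3' UTR (Pmp22-F2sN) were treated with compounds for 24 h at 37C, then lysed; FLuc and then NLuc luminescence were read sequentially with a dual-luciferase kit on a CCD imager.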
(In general: In a reporter assay the amount or activity of a reporter protein is the signal.)
By AC50 is commonly meant the concentration giving half of the maximal activity seen. A low value points to activity at low concentration. As for `CCOc1cc(C(Nc2cc(C)ccn2)c2ccc3cccnc3c2O)ccc1OC` (stereo not drawn), the half-maximal activity concentration (AC50) was 21.7 µM [falling, partial curve].

As for `Cc1ccc(C)c(NC(=O)Cn2c(=O)n(Cc3ccco3)c(=O)c3oc4ccccc4c32)c1`, the AC50 was 24.3 µM [falling, partial curve].

With `Cc1ccc(Nc2c3c(nc4ccccc24)CCC3)cc1F`, the AC50 was 27.3 µM [falling, partial curve, poor fit].
